# Data: PMC4336329 (PLoS ONE, 2015)
# About 2,200 (0.71%) of roughly 310,000 compounds showed an effect of 50% or more. The effect is printed as a negative number. This is one part of the list.
# Biological target: human ether-à-go-go-related gene (hERG) potassium channel (human, UniProt Q12809)
# Assay: primary screen, population patch clamp on CHO cells stably expressing hERG
# Chain of human ether-à-go-go-related gene (hERG) potassium channel (Q12809 whole entry, looked up): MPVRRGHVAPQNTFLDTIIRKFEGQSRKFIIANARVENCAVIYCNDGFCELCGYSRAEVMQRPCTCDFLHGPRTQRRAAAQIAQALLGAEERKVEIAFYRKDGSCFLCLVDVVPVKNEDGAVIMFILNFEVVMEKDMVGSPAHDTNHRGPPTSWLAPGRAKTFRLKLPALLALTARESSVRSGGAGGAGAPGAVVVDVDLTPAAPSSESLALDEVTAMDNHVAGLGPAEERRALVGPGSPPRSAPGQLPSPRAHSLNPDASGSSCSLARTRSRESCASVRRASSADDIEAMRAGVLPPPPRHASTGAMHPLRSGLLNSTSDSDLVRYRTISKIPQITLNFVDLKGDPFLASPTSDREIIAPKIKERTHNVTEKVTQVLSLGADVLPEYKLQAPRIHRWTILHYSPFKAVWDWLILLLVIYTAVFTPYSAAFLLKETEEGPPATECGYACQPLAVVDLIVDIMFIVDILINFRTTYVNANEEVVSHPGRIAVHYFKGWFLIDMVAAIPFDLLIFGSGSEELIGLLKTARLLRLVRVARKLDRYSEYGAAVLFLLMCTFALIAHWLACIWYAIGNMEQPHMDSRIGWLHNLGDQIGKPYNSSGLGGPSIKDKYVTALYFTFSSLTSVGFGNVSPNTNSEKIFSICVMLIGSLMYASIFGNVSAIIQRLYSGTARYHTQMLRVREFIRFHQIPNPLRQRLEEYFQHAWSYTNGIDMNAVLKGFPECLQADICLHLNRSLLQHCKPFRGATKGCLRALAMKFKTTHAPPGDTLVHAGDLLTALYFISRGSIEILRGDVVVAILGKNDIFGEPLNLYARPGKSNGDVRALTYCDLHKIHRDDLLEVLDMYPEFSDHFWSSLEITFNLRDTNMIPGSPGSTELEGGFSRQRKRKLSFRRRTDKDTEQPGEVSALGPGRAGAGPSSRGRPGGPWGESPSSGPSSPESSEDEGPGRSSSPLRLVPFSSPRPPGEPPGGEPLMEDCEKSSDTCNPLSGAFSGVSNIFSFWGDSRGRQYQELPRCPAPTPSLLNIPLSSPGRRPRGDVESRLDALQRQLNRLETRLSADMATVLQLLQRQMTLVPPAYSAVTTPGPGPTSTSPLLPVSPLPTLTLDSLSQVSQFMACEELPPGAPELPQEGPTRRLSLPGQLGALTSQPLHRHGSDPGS
row,SMILES,"hERG current change (%, negative = inhibition) at 1uM [%]"
1,COC(=O)c1ccc(NC(=S)NC2CCCCC2C)cc1 (centres unmarked),8.46
2,CCOc1ccccc1C1c2cc3c(cc2OC(C)(N2CCCC2)C1C)OCO3 (centres unmarked),-5.47
3,Cc1cc2oc(=O)cc(CN3CCN(S(=O)(=O)c4cccs4)CC3)c2cc1C(C)C,4.78
4,COc1ccc(C)cc1S(=O)(=O)N1CCC(C(=O)N2CCOCC2)CC1,-3.13
5,COC(=O)CC1=C(C)C(=O)CC2C(C)(C)CCCC12C (centres unmarked),9.52
6,O=c1[nH]cnc2c1ncn2[C@H]1CC[C@@H](CO)O1,11.9
7,CCC(C(=O)OCC(=O)Nc1c(C)nn(-c2ccccc2)c1C)c1ccccc1 (centres unmarked),3.56
8,O=C(Nc1ccc(N2CCN(C(=O)c3cccs3)CC2)cc1)c1cccnc1,10.5
9,COc1ccc(N2C(=O)CN=C2Nc2nc(C)cc(C)n2)cc1OC,-7.93
10,Cc1oc2c(C)c3oc(=O)c(CC(=O)N[C@@H](CCCNC(N)=O)C(=O)O)c(C)c3cc2c1C,11
11,Cc1cc(C)c(C)c(OCCCCn2cnc3ccccc3c2=O)c1,5.31
12,Cc1ccc2c(Cl)cc(Cl)c(OCC(=O)Nc3cc(S(=O)(=O)N(C)C)ccc3C)c2n1,15.1
13,O=C1NC(Cc2c[nH]c3ccccc23)C(=O)N1CCOc1ccc(F)cc1 (centres unmarked),4.9
14,COc1ccccc1C1C(C#N)=C(N)Oc2cc(C)n(CCCn3ccnc3)c(=O)c21 (centres unmarked),9.78
15,O=C(CSc1c2c(nc3ccc(Cl)cc13)CCCC2)NCc1ccco1,-6.82
16,Cn1c(Cl)nc2ccccc21,1.57
17,COc1ccc([N+](=O)[O-])cc1NC(=O)C(C)OC(=O)/C=C/c1ccco1 (centres unmarked),0.263
18,CC(=O)Nc1ccccc1C(=O)C(=O)Nc1cccc(Br)c1,5.75
19,COc1nc(N/N=C/c2cc3c(cc2Br)OCO3)nc(N2CCOCC2)n1,2.27
20,C=CCn1c(SCC(=O)c2[nH]c(C)c(C(=O)OCC)c2C)nc2scc(-c3ccc(OC)c(OC)c3)c2c1=O,19.1
21,Cc1ccc(C(=O)Nc2sc3c(c2C(=O)O)CCCC3)o1,3.28
22,COc1ccccc1C(=O)NCCC(=O)Nc1ccc(OC(F)(F)F)cc1,16.2

row,SMILES,"hERG current change (%, negative = inhibition) at 1uM [%]"
1,CC1(C)C(=O)Nc2ccccc2N1C(=O)COc1ncnc2c(Cl)cc(Cl)cc12,3.26
2,C/C(CC(=O)Nc1ccccn1)=N\NC(=O)c1ccccc1,6.72
3,Cc1ccc2nc(/C(C#N)=C\c3ccc(N4CCOCC4)o3)[nH]c2c1,0.139
4,CC(=O)c1cccc(NS(C)(=O)=O)c1,3.77
5,Cc1ccc(NNC(=O)c2c(F)cccc2Cl)cc1Cl,9.42
6,CCCCOc1ccc(-c2cn3ccccc3n2)cc1[N+](=O)[O-],23
7,CCN(CC)CCN(C)c1ccc(N2C(=O)C3CC=CCC3C2=O)cc1[N+](=O)[O-] (centres unmarked),11.5
8,Cc1ccc(C)c(S(=O)(=O)N/N=C/c2ccc(C(=O)O)cc2)c1,4.42
9,OC1O[C@H](c2ccc3c(c2)OCO3)[C@H]2CO[C@H](c3ccc4c(c3)OCO4)[C@@H]12 (some centres unmarked),3.63
10,O=C(OCc1c(Cl)cccc1Cl)c1ccncc1,2.93
11,O=C(O)c1ccc(N/N=C/c2cc3c(cc2[N+](=O)[O-])OCO3)cc1,17.6
12,Cc1c(Cl)cccc1NCC(=O)Nc1ccc(Cl)cc1F,9.25
13,COc1ccc(-c2nn(-c3ccccc3)cc2C(=O)NCCCn2ccnc2)cc1,-3.1
14,O=C(c1ccc(-c2ccccc2)cc1)N1CCC(C(=O)N2CCCC2)CC1,-0.047
15,Cc1cc2nc(CO)[nH]c2cc1C,13.6
16,COCCOc1nc2ccccc2nc1C,6.8
17,CN1CCN(S(=O)(=O)c2ccc(Oc3cccc(C(F)(F)F)c3)nc2)CC1,2.12
18,CCCc1cc(=O)n2[nH]c(CCc3ccccc3)nc2n1,15.2
19,Clc1ccc(-c2n[nH]c3c2CCCC3)cc1,-5.7
20,CC(=O)NC1C(=O)N=C(SCC(=O)NC2CCCCC2)NC1=O (centres unmarked),9.5
21,Cc1ccc(-c2nnc(N)s2)cc1,14.4
22,COc1cccc2[nH]c(C(=O)NC(C)c3ccccc3)cc12 (centres unmarked),6.92
